From the RNAGym collection of RNA variant scans (doi:10.7554/elife.90254)
The source gives no read counts; variants with many changes may rest on few reads.

B1: LINE1-mini (parent)
chain: GGCAGAGCUCAACACAGCGUGGCAAAGUGGCUGUGGCUAGACUGCC

Variants of: B1
Assay: self-cleavage, relative activity (ratio to wild type); higher = more cleavage; in vitro, sequencing; the parent is a self-cleaving ribozyme

Row | Variant | self-cleavage
1 | C15G G17A U20C A39U | 0.02
2 | C15G G17C C23A | 0.04
3 | C15G G17C G44A | 0.04
4 | C15G G17U C18G G19U G40U | 0.01
5 | C15G G17U C46U | 0.15
6 | C15G G19A C37U G44A | 0
7 | C15G G19A G21A C23G G36U | 0.03
8 | C15G G19A G27A G29C C42U | 0.26
9 | C15G G19A U32A | 0
10 | C15G G19A U34G | 0.02
11 | C15G G19C A25C U28C G36C A39G | 0.02
12 | C15G G19C A39U | 0.05
13 | C15G G19C C46U | 0.11
14 | C15G G19C G27U C42A | 0.03
15 | C15G G19U A26C G27U G36C G40U | 0
16 | C15G G19U C23U | 0.06
17 | C15G G19U G35U | 0
18 | C15G G19U G40A | 0.02
19 | C15G G21A A25C G33U U34G | 0.01
20 | C15G G21A C23A | 0.3
21 | C15G G21A C42G | 0.02
22 | C15G G21A C42G U43A | 0
23 | C15G G21A G27A G33U C46G | 0.13
24 | C15G G21C A24G C37U | 0.25

Row | Variant | self-cleavage
25 | C15G G21C A26G | 0.08
26 | C15G G21C C31U | 0
27 | C15G G21U A26G C42A | 0.01
28 | C15G G21U G35C | 0
29 | C15G G21U G35C C45A | 0
30 | C15G G22A C45U | 0.04
31 | C15G G22A G33A U34A C37G | 0.02
32 | C15G G22C G29C | 0.19
33 | C15G G22U A25C A41C C42A C46U | 0.01
34 | C15G G22U C23A G29A | 0.17
35 | C15G G22U C42A | 0.03
36 | C15G G22U G30U G33U | 0.09
37 | C15G G22U G35C | 0.03
38 | C15G G27A G30C | 0.03
39 | C15G G27A U28A G35C | 0.06
40 | C15G G27A U32A A39C G44U | 0
41 | C15G G27U G30C | 0.06
42 | C15G G27U G33U C45A C46A | 0.01
43 | C15G G29A G44A | 0.16
44 | C15G G29C C37A G40U | 0.15
45 | C15G G29C C46U | 2.14
46 | C15G G30A C31G G40U | 0.02
47 | C15G G30A G40U | 0.01
48 | C15G G30A G44U | 0.05

Row | Variant | self-cleavage
49 | C15G G30C C31G A39G | 0
50 | C15G G30C C31G G36A | 0.01
51 | C15G G30C C37A | 0.02
52 | C15G G30C G35A | 0.01
53 | C15G G33A A39U | 0.06
54 | C15G G33C C46A | 0.09
55 | C15G G33C G40C | 0
56 | C15G G35A A41C | 0.03
57 | C15G G35A C37A | 0
58 | C15G G35A G40C U43C | 0.04
59 | C15G G35A U43G | 0
60 | C15G G36A U38A | 0.04
61 | C15G G36C A41C | 0.01
62 | C15G G36U C46A | 0.02
63 | C15G G40A G44U | 0.05
64 | C15G G44U C46G | 0.03
65 | C15G U20A A26G C31U U38G U43C | 0
66 | C15G U20A A26U G33U G44A | 0.01
67 | C15G U20A G21U C46G | 0.01
68 | C15G U20A G36U | 0.01
69 | C15G U20A U34G G35A | 0.04
70 | C15G U20C C45A | 0.03
71 | C15G U20C G21U A39C | 0.01
72 | C15G U20G C31G G44C | 0

Row | Variant | self-cleavage
73 | C15G U20G G36A G40C C42G G44A | 0.01
74 | C15G U20G U28G | 0.08
75 | C15G U20G U34G G36U | 0.04
76 | C15G U28A G30U U34A A41U | 0
77 | C15G U28G G29C | 0.41
78 | C15G U28G G35U | 0.01
79 | C15G U28G U32G G44U | 0
80 | C15G U32A U38C | 0.01
81 | C15G U34C A39G C45G | 0.01
82 | C15G U34C G35C G36C C46A | 0
83 | C15G U34G G36A | 0.01
84 | C15G U34G G44C | 0.01
85 | C15G U38A C42U | 0.03
86 | C15G U38C C42A G44A | 0
87 | C15G U38G C46A | 0.01
88 | C15U A16C C18G C23A G29U G36C C45A | 0.02
89 | C15U A16C C42U C45G | 0.03
90 | C15U A16C G17A U20G U43C | 0.01
91 | C15U A16C G36A | 0.04
92 | C15U A16G C31G | 0.01
93 | C15U A16G C42A G44A C45U | 0.04
94 | C15U A16G U28C U32A A41U | 0.09
95 | C15U A16U G17C | 0.01
96 | C15U A16U G22A G29C | 1.91

Row | Variant | self-cleavage
97 | C15U A16U U28G | 0.05
98 | C15U A16U U34A | 0.02
99 | C15U A16U U43G | 0.12
100 | C15U A24C G30U C46A | 0.02
101 | C15U A24C G44U | 0.02
102 | C15U A24G C31U G35U | 0.12
103 | C15U A24G C37U | 0.04
104 | C15U A24U C31U A41C C42A | 0.08
105 | C15U A25C A26U U28G G30A G33A | 0.07
106 | C15U A25C C42A | 0.14
107 | C15U A25C G29U | 1.75
108 | C15U A25C G40A | 0.03
109 | C15U A25U G29A G33A U34G | 0.03
110 | C15U A25U G33A C46U | 1.09
111 | C15U A25U G40C | 0.06
112 | C15U A25U U28G | 0.14
113 | C15U A25U U32G U38G | 0.03
114 | C15U A25U U38C | 0.08
115 | C15U A26C C31A G44U C45U | 0.03
116 | C15U A26C C45A | 0.12
117 | C15U A26C U38G | 0.03
118 | C15U A26G C31U | 0.05
119 | C15U A26G G27U G29U A39C | 0.13
120 | C15U A26G G35C C37A C42A G44C | 0.05

Row | Variant | self-cleavage
121 | C15U A26U A41G | 0.05
122 | C15U A26U G29A C31A | 0.07
123 | C15U A26U U43C | 0.08
124 | C15U A39G C42G | 0.02
125 | C15U A41C C46A | 0.03
126 | C15U C18A A24U G29U | 0.07
127 | C15U C18A G19A C42U | 0.17
128 | C15U C18A G19C G44C | 0.04
129 | C15U C18A G19C U34G | 0.01
130 | C15U C18A G29C U38A A41C | 0.01
131 | C15U C18A G30U G36A C37A C45G | 0.02
132 | C15U C18G A24G C31A C42U | 0.02
133 | C15U C18G A26U | 0.03
134 | C15U C18G A39U | 0.11
135 | C15U C18G A39U G44A | 0.04
136 | C15U C18G C31U G36U A41C | 0.01
137 | C15U C18G G21U | 0.03
138 | C15U C18U A24U C46U | 0.14
139 | C15U C18U C23A G33A G44U C45G | 0.13
140 | C15U C18U C23U G29U U43C | 0.07
141 | C15U C18U C37U | 0.1
142 | C15U C18U G27C C45G | 0.18
143 | C15U C18U U20G A41U | 0.04
144 | C15U C23A A25C G33C | 0.03

Row | Variant | self-cleavage
145 | C15U C23A A25C U43C | 0.06
146 | C15U C23A G30C C31U C45U | 0.12
147 | C15U C23A G40A A41G C45A | 0.13
148 | C15U C23G C37U | 0.08
149 | C15U C23U A25G G33U G40U C42A | 0
150 | C15U C23U C45G | 0.06
151 | C15U C23U G30A A39G | 0.03
152 | C15U C23U U28C | 0.73
153 | C15U C31A A41C G44A | 0.02
154 | C15U C31A C46G | 0.15
155 | C15U C31G C37U C45G | 0.03
156 | C15U C31G U34C | 0.11
157 | C15U C31G U38A | 0.17
158 | C15U C31U C45G | 0.07
159 | C15U C31U G40C C42U | 0.38
160 | C15U C31U G40U C42U | 0.05
161 | C15U C37A C42U | 0.08
162 | C15U C37G A41U G44C | 0.03
163 | C15U C42A U43C | 0.03
164 | C15U C42G C45G | 0.02
165 | C15U C42G G44U | 0.07
166 | C15U G17A G19A U20A A24U A41U | 0.06
167 | C15U G17A G21C U28C C46A | 0.24
